In all, about 2,300 sequences were measured (“median log2 fold change of GCK-ALFA target abundance (FLAG IP / Myc IP barcode read proportion)”: median about 0.095, lowest 2% from about -0.47 on). Some of the results follow.
B1: LC3A_28_1154 (protein)
chain: SANVEAAKKQIDEDAEKDKDEEEVYLNVTITSEDTVEEAKEIMEHVEEVVEKLKDKKKIYVVITFEEPVSQEVLDTVLEKAEEIEKKFPNVSVIIALPED
B2: LC3A_free_39_2285 (protein)
chain: SAAELEKAVAELKKLLDEDPNVTEEEKKIILEFAKKSLEAAKAIVEAVKEIKEAGGDVGEFAKRIAEKIKELEEKGLSLEERAKEVIELARDLKNLIPID
B3: LC3A_3_1666 (protein)
chain: AEERIEEALEFLRAAGKSEETLEAARRALEALAERGYEEALETFIELLRELAGLSDETLLALAEDVLALVETSDLSEEELTARIRELARTARAEEEIIEL
B4: LC3A_28_1216 (protein)
chain: SAIDAELARARAEMAAAKAAGEEALITIRIPATATLADVERAMAALREIVAEVADLPSIDIIIEFEAGVSQEVIDAAADGGEEIEKEFPNVTVIIALDEE
B5: LC3A_6_2061 (protein)
chain: GKLEYTIDILLKPETLEEAKEKSLALIEEAKAKLEAEMAAIGEKVLEFKVELSEDGELITVTVVVENTPEAKAATDAVVDELVERLEPYASAIMESREVL
B6: LC3A_28_1285 (protein)
chain: SEIDKNIEKAIEEAKKAVEEGKSAVITINVPGNATQEEIDKVIEAMKEIAEILKDVPNQAIVVNVDGGVKQEYIDKLADAAEEIEKKYPNVTVIIALDED
B7: LC3A_147_452 (protein)
chain: ATYVITVDVLLRNDPELAERIEEEIKKIGEENGAEVEVEREEIQETPTTTEYFLRVTLKTTDEEKALKALQEVSELLDRTAEEHPESFLGAMISFEKIED
B8: LC3A_45_1986 (protein)
chain: MYEATVSLLVPKELAEKALEVAKKAMEELKKKYGPELKVNEERLEKTYEASKNEEDVYLEIDITHPDEQVALDAAVELEDRIRKELGDNVASIISYKKIP
B9: LC3A_59_2023 (protein)
chain: DAELEALIAAARAAKDDPEALARVILEGFELVRDDPEKLKRLKELLVKMLVEEGLLSEELAKELVEDIEEIVKTIADREKALEEILELLRVYLNENEIIE
B10: LC3A_free_0_2122 (protein)
chain: KKTVVEVVVILDESTSKETAEEIYEKLKEKAEELAKEAGAEVESSLSEVDGSYIITIKITLPTDDIDKALELEDKLVETAEEIAKEAGVEATIYSSVYLE
B11: LC3A_free_8_2535 (protein)
chain: NKQEFVNKALELLDKFEEELVKKMKELGKSRLDILDVELLIGETKIEVISNSDKPQEEILEVVKEGLKEIVEYAKTLGEELAEFAKKKAEEVLKELEESL
B12: LC3A_45_1922 (protein)
chain: MYEATLDLLVPKELAEEAYELIKKLLEELEKKRGPNFKVDYETLDASYEASKDEEDVYLEVKIYAPTEEEALDAAIEIEEELSKELGGKVASIISVKKVP
B13: LC3A_45_1921 (protein)
chain: MYKATVDLLVPKELLEKVLETIREKAEEIKKKTNGKVEFDLEGLEKSAEETKDEEEVYLELDIYAEDKQLALDAADEIVDAIEEKTGKKIAAIISVEELP
B14: LC3A_147_436 (protein)
chain: YEAVVDIDILTKNAKEEVLKALEELAEKLRAQGYEVKLEIEVEELENGETFIDATITVKAPTKEEAQAAADYIVDSVDELEEKLKDKILGSIISVEISEA
B15: LC3A_free_8_2549 (protein)
chain: NSQKLTTTVTAKLDEMEERLAEKAKELGLSQLDINELELLIGEAIIDVIELQDKSPEEILEELKEDLEEIIEYAKELGEELAKLAKELSEEILKEAEELL
B16: LC3A_6_2063 (protein)
chain: KLVTATIDMLVKPEYVDRAEEIAEEFKAALTAALEKVAAKTGAKLKSVEYEIDENGEFITVTVTVEADEKAVPAIQKAVDDVVDSFEDKFSASMISYEVE
B17: LC3A_45_1979 (protein)
chain: MYLATVDILVPRELADEAYAAAKAAADELEARYGDKVRVNRAVLDASYAATKDEEDVYLRVEIYAPDEQLALDAADELVDRLEEALGDKVAAIISIEEVP
B18: LC3A_3_1849 (protein)
chain: MEEIIKEILELLKSLGRSEETIKAALELANLLAEKGYKKALEKLLEELKELKDLSDEILLDMFNDILDAVKNEDLNEEEVIKLIEEEARIAKNEQEIIEL
B19: LC3A_3_1552 (protein)
chain: MEKIRAETLQALREAGKSQEVIDAAQATFDALKERGYEEAAKVFAEEARELLDLPDELLLTFFNDVLNYILTNDVSEEELIEYIKEVARTVRNEGEIEEL
B20: LC3A_3_1734 (protein)
chain: MEEILEAAREELEELGFSEETIEAALEVIKELLERGFLEAVEELLRELRRLKHLPDEIILAMLEDILEYVKKNDINEEEAIELIREEARIAENESEIEEL
B21: LC3A_3_1623 (protein)
chain: LEEEIEETLKELKEAGQSEETLEALKETVELLLEKGYEEAAKTLLEEMRELKDLPSEILLAAIEEVKEVVETEDLNEEELIERIKEIFRIARNEGEIIEL
B22: LC3A_free_8_2465 (protein)
chain: ANQKLVDALTAQLDKLEEELEKKAKELGLSELDILELKLEIGSVIAEVISLVDESPEAIVKAFEEGMERVIELAKELSEELAKLAEAGKEEAKKEAEKLL
B23: LC3A_28_642 (protein)
chain: MEIEEQIEKALKEAKEAKEKGEPTVITLTLDGNATEEDVERLIEALEEIAEILESVPGSAIIIDVTGDVPEEHINRLADKAEEIEEKYPNVTVIIALEER
B24: LC3A_free_39_2222 (protein)
chain: SEEEIEKLIKEVAKESGIDYEELKKKIEEIQKIAKLSLEQIKEIVEGILKAVKAGADAKEIVEESLELAKKLVEEGKSPEEIKEEILELIEDYRNLVPLD
B25: LC3A_28_1029 (protein)
chain: MELEKNAKEAIEEAKKLFEKGEEAVVTLNVPKIPKEEAVKKVKETLEELIKLSKKYGNKKVTVVINYDGDQETADAIADVAEEAEKKDPNLTVILALSEE
B26: LC3A_3_1876 (protein)
chain: MEEEIKKTLEELKKAGASEETLKTFKEVAEKLKERGYEEALKTLIEEVKELMGTSDEVLLDFLKEVLEVLETEDLSEEELIERIKELARLALNEAEIEEL
B27: LC3A_28_997 (protein)
chain: SAIDKQIEAALAQAKEAAAAGEPVVITITITSTATQADIDKVMATMEEIAEILKDIKGSAIIVNIEAGVSQELQDKIIDHAEEIEKKYPNITVIIALDED
B28: LC3A_28_671 (protein)
chain: SALEEQLEKALAEAKKLAAKGEPGVIVIEVPGDATEEEIERLIKTLEEIAEILKDVKGSAIVIELDKDLKEEHRQRIIDAAERINEKYPNVTVIIAMEER
B29: LC3A_28_1207 (protein)
chain: SKSLKNAEEALKKAKEAAEKGEEEVIVIKVEGGITQEEVEKVIKYLEEIAKIAAKNPKISIVIDISGGVKQEHQDKIIKKAEELEKKYPNVNIIIALEEE

biological target: MAP1LC3A, Q9H492; assay: median log2 fold change of GCK-ALFA target abundance (FLAG IP / Myc IP barcode read proportion) (log2 ratio); each designed protein is fused to an ALFA-tag nanobody in HEK293 cells to bring the named protein to FLAG-tagged glucokinase (GCK); Myc marks an untargeted standard; higher = target protein stabilised (more abundant); conditions: target protein: 3xFLAG-MCP-GCK-ALFA reporter; HEK293 landing pad (RPLP)
Summary of the method: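 Sequencing of reverse-transcribed, amplified circular RNA barcodes from anti-FLAG and anti-Myc immunoprecipitates provided the readout for an ALFA-nanobody-fused binder library recombined into HEK293 landing-pad cells. Those cells were induced with 2 μg mL^−1 doxycycline, transfected with a plasmid expressing a FLAG-tagged target and a Myc-tagged standard, and lysed after 48 h. Target abundance is the per-binder median log2 ratio of FLAG to Myc barcode read proportions. Only barcodes at a proportion of ≥10^−7 in both replicates and binders with ≥3 barcodes per replicate were kept, with a 10^−6 pseudocount added before the two replicates were pooled.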

Compared with B1, B2 is higher in “median log2 fold change” value: -0.142 for the first, 0.326 for the second.

B3 and B4 are within 0.2 log units of each other in “median log2 fold change” value: 0.277 for the first, 0.0879 for the second.

B5 and B6 are within 0.2 log units of each other in “median log2 fold change” value: 0.0736 for the first, 0.174 for the second.

B7 and B8 are within 0.2 log units of each other in “median log2 fold change” value: -0.0647 for the first, 0.0943 for the second.

Compared with B9, B10 is lower in “median log2 fold change” value: 0.203 for the first, -0.221 for the second.

Going from B11 to B12, the “median log2 fold change” value falls from -0.0681 to -0.405.

B13 and B14 are within 0.2 log units of each other in “median log2 fold change” value: 0.0987 for the first, 0.233 for the second.

Going from B15 to B16, the “median log2 fold change” value rises from -0.236 to 0.00737.

First: B17
Second: B18
The “median log2 fold change” value of the first is lower: -0.00345 for the first, 0.217 for the second.

First: B19
Second: B20
The “median log2 fold change” value of the first is higher: 0.25 for the first, -0.0692 for the second.

Going from B21 to B22, the “median log2 fold change” value falls from 0.184 to -0.0403.

First: B23
Second: B24
The “median log2 fold change” value of the first is lower: -0.133 for the first, 0.0698 for the second.

B25 and B26 are within 0.2 log units of each other in “median log2 fold change” value: 0.157 for the first, 0.26 for the second.

B27 and B28 are within 0.2 log units of each other in “median log2 fold change” value: -0.0479 for the first, 0.0757 for the second.

For B29, the “median log2 fold change” value was 0.141.
